± gives the standard deviation. The full ranking holds about 5,500 sequences; the median of “pre-steady-state target cleavage rate” is about 0.1, and the highest 2% start at about 0.64. The entries are a selection whose mix differs from that of the whole data set.
system: MIWI (PIWIL1) piRISC loaded with piRNA #2 (30 nt); experiment: pre-steady-state target cleavage rate (min^-1); MIWI and MILI are mouse PIWI proteins and EfPiwi is from a freshwater sponge; tags in brackets are library labels; higher = faster piRNA-guided slicing of the target; details: guide: piRNA #2 5'p-UUAGGUAACCCAGUAGAUCCAGAGGAAUUC; auxiliary factor: 500 nM mouse GTSF1
How it was run: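 Cleave-'n-Seq reactions paired 0.1 nM transcribed, DNA-blocked target RNA library with 1 nM active affinity-purified piRISC holding one synthetic guide, plus or minus 500 nM GTSF1 partner protein, in HEPES–potassium acetate buffer at 33 °C for 0–8 or 0–960 min. After sequencing of uncleaved targets and normalisation to depth and weakly complementary targets, the pre-steady-state cleavage rate was taken from a burst-and-steady-state fit. Three trials were pooled, and k3 was capped at 0.0001 min^-1.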

Sequence	pre-steady-state target cleavage rate
CUUAACCUCUGGAACUACUGGGUUACCUAA	0.37 ± 0.035
GAAUUCCUCUGGAUCUACUGGGAUACCUAA	0.164 ± 0.027
CUUAAGGAGUGGAUCUACACGGUUACCUAA	0.00547 ± 0.0032
CUAUUCCUGUGGAUCAACUGGGUUACCUAA	0.377 ± 0.038
CUUAAGCUCUCCAUCUACUGGGUUACCUAA	0.266 ± 0.031
CUUAUCCUCAGGUUCUACUGGGUUACCUAA	0.389 ± 0.043
CUUAAGGAGACCUUUCUACUGGGUUACCUAA	0.00338 ± 0.003
CUAUUCCUCUGGUUCUAGUGGGUUACCUAA	0.24 ± 0.024
CUUUUCCUCUGCAUCUUCUGGGUUACCUAA	0.258 ± 0.025
CUUUUCCUCAGGAUCAACUGGGUUACCUAA	0.343 ± 0.036
CUUAAGCUCUGGAUUACUGGGUUACCUAA	0.128 ± 0.014
CUUAAGCUCUGGAUCUACUGGGUUUCGUAA	0.0853 ± 0.012
CUUAAGGUCUGGAUCUACUGGGUUACCCAA	0.0201 ± 0.0072
CUUAAGCUCUGGAUGAUCUGGGUUACCUAA	0.00889 ± 0.0027
GAAUUCCUCAGGAUCUACUGGGAUACCUAA	0.28 ± 0.058
CUUUUCCACUGGAACUACUGGGUUACCUAA	0.288 ± 0.03
CUUUUCCUCUGGAUGUACAGGGUUACCUAA	0.427 ± 0.026
CAAUACCUCUGCAUCUACUGGGUUACCUAA	0.412 ± 0.039
CUUAAGGAGAGGAUUCUACUGGGUUACCUAA	0.00445 ± 0.0033
CUAUUCCUGUGGAUCUACUGGGUUACCAAA	0.233 ± 0.041
CAAUUCCUCUGGAACUACUGGGUUUCCUAA	0.348 ± 0.1
CUUAUCCUCUGGAUCUACUCGGUAACCUAA	0.0145 ± 0.011
CUAAUCCUCUGGAUCUACUGGGUUACCUUA	0.396 ± 0.069
CUUAUCCUCUGGAUCUUCUGCGUUACCUAA	0.231 ± 0.037

Sequence	pre-steady-state target cleavage rate
GAAUUCCUCUCGAUCAACUGGGUUACCUAA	0.63 ± 0.051
CUUAACCUCUGGAUCUACUGGGGUACCUAA	0.0617 ± 0.014
GAAUUCCUCUGGAUCUACACCGUUACCUAA	0.0862 ± 0.0079
CUAUACCUCUGGAUCUAGUGGGUUACCUAA	0.225 ± 0.043
CUUUUCCUCUGGAUCUACUGGGUUUCCAAA	0.151 ± 0.046
CUAUUCCUCUGGGUCUACUGGGUUACCUAA	0.376 ± 0.029
CAAUUCCUCUGGACUCUACUGGGUUACCUAA	0.317 ± 0.053
CUUAUGCUCUGCAUCUACUGGGUUACCUAA	0.366 ± 0.063
CUUAAGCUCUGGAUCUACUGGGCUACCUAA	0.0738 ± 0.01
CAAUUGCUCUGGAUCUACUCGGUUACCUAA	0.0591 ± 0.016
CUUAAGGAGAGGAUCUACUGGGUUACCUAG [g2:g20:cont:t1G]	0.0105 ± 0.0044
CUUAAGGUCUGGAUCUACUGAGUUACCUAA	0.467 ± 0.063
CUUAAGGAGACCUAGAUCAGCGUUACCUAA	0.00423 ± 0.0029
CUUAAGGAGUGGAUGUACUGGCUUACCUAA	0.0127 ± 0.012
CUUAACCAGAGGAUCUACUGGGUUACCUAA	0.0384 ± 0.0072
CUUAAGGAGUGGAUCUACUGGGUAACCUAA	0.0147 ± 0.009
CUUAACGUCUGCAUCUACUGGGUUACCUAA	0.315 ± 0.027
GAAAAGCUCUGGAUCUACUGGGUUACCUAA	0.0282 ± 0.012
CUUAUCCUCUGGGUCUACUGGGUUACCUAA	0.411 ± 0.037
CAAUUCCUCUGGAUCUUCUGGGUAACCUAA	0.0887 ± 0.02
CUUAAGCUCAGGUUCUACUGGGUUACCUAA	0.249 ± 0.027
CUUUUCCUCUGCAUCUAGUGGGUUACCUAA	0.155 ± 0.017
CUAUUCCUCUGCAACUACUGGGUUACCUAA	0.473 ± 0.045
CUUUUCCUCUGGAUCUACUGGGUUACCCUAA	0.24 ± 0.063

Sequence	pre-steady-state target cleavage rate
CAAAUCCUCUGGAUCUACAGGGUUACCUAA	0.246 ± 0.027
CAAUUCCUCUGGAUCUACUAGGUUACCUAA	0.337 ± 0.055
CUUAAGGUCUGCAUCUACUGGGUUACCAAA	0.0687 ± 0.019
CUUAUCCUCUGGAUCAACUGGGUUACGUAA	0.506 ± 0.038
CUUAAGGUCUGGAUCUACGGGUUACCUAA	0.00716 ± 0.0023
CUUAUCCUCUGGUUCUACUGGGUUACCUAA	0.607 ± 0.047
CUAUUCCUCUGGAUCUACUGGCUUUCCUAA	0.0617 ± 0.017
CUAUUCCUCUGGAACUACUGGGUUAGCUAA	0.3 ± 0.04
GAAUUCCUCUGGAUCUACUGCGUAACCUAA	0.226 ± 0.056
GAAUUCCUCUGGAUCUACUGGGUUAGCAAA	0.238 ± 0.048
CUUAAGCUCUGGAGUCUACUGGGUUACCUAA	0.1 ± 0.011
GAAUUCCUCUGGAUCUACUGGCUUACCUUA	0.073 ± 0.024
GAAUUCCACUGGAUCUACUCGGUUACCUAA	0.193 ± 0.022
CUUAAGGACUGGAUCUACUGGGUGACCUAA	0.063 ± 0.041
CUUAUCCUCUGGAUCUUCUGGGUUAGCUAA	0.0958 ± 0.024
CUUAUCCUACUGGAUCUACUGGGUUACCUAA	0.528 ± 0.065
CUUUUCCUCUGGAACUACUGGGUUUCCUAA	0.185 ± 0.06
CUUAUCCUCUGGAUCAACUGGGUUACCAAA	0.294 ± 0.041
CUUUUCGCUCUGGAUCUACUGGGUUACCUAA	0.132 ± 0.022
CAUAUUCCUCUGGAUCUACUGGGUUACCUAA	0.364 ± 0.053
GAAUUCGUCUGCAUCUACUGGGUUACCUAA	0.568 ± 0.052
CUUUUCGUCUGGAUCAACUGGGUUACCUAA	0.159 ± 0.026
CUUAAGCUCUGGAUGUAGUGGGUUACCUAA	0.0588 ± 0.013
GAAUUCCUCUGGAUCUUCUGGGUAACCUAA	0.0767 ± 0.017

Sequence	pre-steady-state target cleavage rate
CUUUACCUCUGGAUCUACUGGCUUACCUAA	0.083 ± 0.01
CUUAAGGAGACCAUCUACACCGUUACCUAA	0.00422 ± 0.0031
CUAUUCCUCUGGAUCUACAGGGAUACCUAA	0.162 ± 0.02
CUUAAGGUCUGGAUCUAGUGGGAUACCUAA	0.0293 ± 0.011
CAAUUCCUCUGGAGCUACUGGGUUACCUAA	0.508 ± 0.04
CUUAUCCUCUGGAACUACUGGGAUACCUAA	0.0808 ± 0.015
CUAUUCCUCUGGAUCUACAGGGUUACCAAA	0.217 ± 0.027
CUUAAGCCCUGGAUCUACUGGGUUACCUAA	0.315 ± 0.027
GAAUUCCUCUGGAUCUACUGGGCUUACCUAA	0.119 ± 0.028
CUUUUCCUCUGGAUCUUCUCGGUUACCUAA	0.0576 ± 0.0087
CUUAAGGUCUGGAUCUACUGCCUUACCUAA	0.0229 ± 0.0068
CUUAAGGACUGGAUCUGCUGGGUUACCUAA	0.132 ± 0.049
CUUAACCUCUGGAUGUACAGGGUUACCUAA	0.366 ± 0.021
CUUAUCCUCUGGAUCUACAGGGAUACCUAA	0.22 ± 0.031
CUUAUCCUCUGGAUCUACUGGGUUGCCUAA	0.438 ± 0.043
GAAUUCCUCUGGAUGUACUGGGUAACCUAA	0.122 ± 0.025
CAAUUCCUCUGGUUCUACUGCGUUACCUAA	0.481 ± 0.042
CUUAAGGACUGGAUCUAGUGGGUUACCAAA	0.0135 ± 0.0075
CUUUUCCUCAGGAUCUACUGGGUAACCUAA	0.191 ± 0.032
CUUAAGCUCUGGAUGUACAGGGUUACCUAA	0.208 ± 0.014
CUUAAGCUCUGGAUCUACUGGGUUAGGUAA	0.0698 ± 0.015
CUUAAGGACUCGAUCUACUGGGUUACCUAA	0.0415 ± 0.017
CUAUUCCUCUGGAUCUACUGGGAUACCAAA	0.152 ± 0.042
CUUAAGCUCUGGAUCAACUGGGUUACGUAA	0.282 ± 0.035

Sequence	pre-steady-state target cleavage rate
CUUAUCCACUCGAUCUACUGGGUUACCUAA	0.441 ± 0.028
CAAUUCGUCUGGAUCUACUGGGAUACCUAA	0.372 ± 0.053
CAAUUCCUCUCGAUCUAGUGGGUUACCUAA	0.408 ± 0.027
CUUAACCUCUGGAUGUACUGGGUAACCUAA	0.112 ± 0.02
GAAUUCCUCUGGGUCUACUGGGUUACCUAA	0.308 ± 0.042
GAAGUCCUCUGGAUCUACUGGGUUACCUAA	0.0909 ± 0.029
CUUAAGCUCUGGAUCUAGAGGGUUACCUAA	0.0118 ± 0.0039
CUUAUCCUCAGGAUCUAGUGGGUUACCUAA	0.172 ± 0.032
CUUUUCCUCUGGAUCUAGAGGGUUACCUAA	0.022 ± 0.0052
CUUAAGCUCUGUAUCUACUGGGUUACCUAA	0.154 ± 0.029
CUUUUCCUCUGGAUACUACUGGGUUACCUAA	0.377 ± 0.047
CUUAAGGAGACGAUCUACUGGGUUACCUUAA	0.00391 ± 0.0037
CUUAUCCUGUGGUUCUACUGGGUUACCUAA	0.233 ± 0.017
CUUAAGGAGACGAUCUUCUGCGUUACCUAA	0.00297 ± 0.0027
CUUAUCUUCUGGAUCUACUGGGUUACCUAA	0.367 ± 0.035
CUUAUCCUCUCGAUCAACUGGGUUACCUAA	0.508 ± 0.033
CUUAUCCUCACGAUCUACUGGGUUACCUAA	0.538 ± 0.041
CUUAAGGUCUGGAUCUACCGGGUUACCUAA	0.0787 ± 0.0093
CUUAAGGUCUGGAUCUAAUGGGUUACCUAA	0.125 ± 0.013
CUAUUCCUCAGGAUGUACUGGGUUACCUAA	0.577 ± 0.053
CUUAACCUGUGGAUCUACUCGGUUACCUAA	0.0531 ± 0.011
CUAUUCCCUCUGGAUCUACUGGGUUACCUAA	0.339 ± 0.049
CUUAUCCUCAGCAUCUACUGGGUUACCUAA	0.315 ± 0.034
CUUAAGGACUGGAUGUACUGGGUUACCUUA	0.0625 ± 0.043

Sequence	pre-steady-state target cleavage rate
CUUAAGGAGACCUAGAUGACGGUUACCUCAA	< 0.0001
CUUUUCCUCUGGAACUUCUGGGUUACCUAA	0.359 ± 0.036
CUUAAGGACUAGGAUCUACUGGGUUACCUAA	0.0895 ± 0.025
CUAUUCCUCUGGAUCUACUGGGUUUCCUUA	0.263 ± 0.062
CUUAAGCUCUGGAUCAACAGGGUUACCUAA	0.0381 ± 0.01
CUUAACCUGUGGUUCUACUGGGUUACCUAA	0.213 ± 0.021
CUUAAGGUCUUGAUCUACUGGGUUACCUAA	0.382 ± 0.037
CUUAUGCUCUGGAUCUACUGCGUUACCUAA	0.289 ± 0.034
CUUAUCCUCUCGAUCUUCUGGGUUACCUAA	0.625 ± 0.057
CUUUUCCUCAGGAUCUACUGGCUUACCUAA	0.0722 ± 0.015
CUUUUCCUCUGGAUCUACGGGGUUACCUAA	0.0842 ± 0.0056
CUUAAUCUCUGGAUCUACUGGGUUACCUAA	0.194 ± 0.034
CUUAUCCUCUGGAUCUACUGGGGUACCUAA	0.126 ± 0.033
CUAUUCGUCUGGAUCUAGUGGGUUACCUAA	0.0616 ± 0.011
CUUAUCCACUGGAUCUACUCGGUUACCUAA	0.0581 ± 0.016
CUUAUCCUCUGGAUCUACUGCGAUACCUAA	0.224 ± 0.033
CUUAAGGAGUGGAUCUACUGGUUUACCUAA	0.056 ± 0.02
GAAUUCCUCUGGAUCUACUGGGUUACCUAC [g2:g30:cont:t1C]	0.189 ± 0.031
CUUAAGCUCUGGUACUACUGGGUUACCUAA	0.249 ± 0.019
CUUAAGGAGUGGAUCUACUGGGUUACCUAU [g2:g21:cont:t1U]	0.139 ± 0.023
CUUAAGGAGUGGAUCUACUGGGUUAGCUAA	0.0313 ± 0.011
CUUAACCUCUGGAUCUACUGGGUUAGCUUA	0.0895 ± 0.013
CUAUUCCUCUGGAUCUACUGGGAAUCCUAA	0.184 ± 0.06

Source: the supplement of paper PMC10338343
